Among all 310,000 compounds or so, about 2,200 (0.71%) showed an effect of 50% or more. Effects have a minus sign here. The list shows a part of the results.
These molecules were tested against human ether-à-go-go-related gene (hERG) potassium channel (human, UniProt Q12809) (assay: primary screen, population patch clamp on CHO cells stably expressing hERG).
Chain of human ether-à-go-go-related gene (hERG) potassium channel (Q12809 whole entry, looked up): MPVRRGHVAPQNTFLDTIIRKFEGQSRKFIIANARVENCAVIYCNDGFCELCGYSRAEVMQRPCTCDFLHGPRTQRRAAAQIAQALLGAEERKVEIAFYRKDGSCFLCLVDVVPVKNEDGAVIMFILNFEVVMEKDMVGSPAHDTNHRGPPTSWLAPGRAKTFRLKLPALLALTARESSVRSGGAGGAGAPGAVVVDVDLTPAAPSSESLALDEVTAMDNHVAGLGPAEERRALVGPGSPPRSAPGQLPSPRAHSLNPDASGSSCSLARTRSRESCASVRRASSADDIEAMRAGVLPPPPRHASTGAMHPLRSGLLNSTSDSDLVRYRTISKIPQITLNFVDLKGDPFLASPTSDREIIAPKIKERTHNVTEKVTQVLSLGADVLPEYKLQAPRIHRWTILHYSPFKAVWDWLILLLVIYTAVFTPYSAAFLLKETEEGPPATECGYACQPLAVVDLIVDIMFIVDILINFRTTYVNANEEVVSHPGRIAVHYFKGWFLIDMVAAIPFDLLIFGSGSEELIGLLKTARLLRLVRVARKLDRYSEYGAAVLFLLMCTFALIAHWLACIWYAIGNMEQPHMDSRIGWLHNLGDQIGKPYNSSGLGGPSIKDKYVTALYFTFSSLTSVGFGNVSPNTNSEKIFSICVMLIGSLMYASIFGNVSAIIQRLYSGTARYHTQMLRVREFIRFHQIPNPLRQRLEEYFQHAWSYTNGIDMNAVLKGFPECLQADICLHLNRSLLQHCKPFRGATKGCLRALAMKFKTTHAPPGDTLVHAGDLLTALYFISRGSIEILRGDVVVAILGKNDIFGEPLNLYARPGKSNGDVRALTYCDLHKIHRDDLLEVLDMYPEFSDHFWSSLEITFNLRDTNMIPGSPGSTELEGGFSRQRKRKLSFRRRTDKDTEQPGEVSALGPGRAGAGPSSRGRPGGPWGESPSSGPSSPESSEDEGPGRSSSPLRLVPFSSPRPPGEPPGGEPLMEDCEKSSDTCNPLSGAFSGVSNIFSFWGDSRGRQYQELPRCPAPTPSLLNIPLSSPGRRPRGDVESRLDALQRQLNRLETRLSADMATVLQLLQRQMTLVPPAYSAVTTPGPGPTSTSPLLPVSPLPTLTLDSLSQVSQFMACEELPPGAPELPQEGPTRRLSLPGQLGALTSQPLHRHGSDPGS

First: CCCn1c(=O)n(C)c(=O)c2c(SCC(=O)NC34CC5CC(CC(C5)C3)C4)nc(CC(C)C)nc21
Second: CCOC(=O)Cc1csc(NC(=O)CSc2nnc(C)n2C)n1
The “hERG current change (%, negative = inhibition) at 1uM” value of the first is lower: 10.2% for the first, 12.6% for the second.

First: OCCC1CN(Cc2cccn2-c2ncccn2)CCN1Cc1ccc(F)cc1 (centres unmarked)
Second: O=C(c1cc2cc(F)ccc2[nH]1)N1CCC(Cc2ccccc2)CC1
The “hERG current change (%, negative = inhibition) at 1uM” value of the first is lower: -74.7% for the first, 14.2% for the second.

First: COC(=O)c1cc(-c2ccccc2)sc1NC(=O)CN1C(=O)c2ccccc2C1=O
Second: O=C1c2ccccc2C(=O)N1CCSc1ccccc1
The “hERG current change (%, negative = inhibition) at 1uM” value of the first is higher: 12.3% for the first, 7.13% for the second.

First: O=C(CSc1ccccc1)Nc1cc(S(=O)(=O)N2CCOCC2)ccc1N1CCOCC1
Second: Cc1ccc(NC(=O)CSc2nnc(NC(=O)c3ccc(S(=O)(=O)N4CCOCC4)cc3)s2)cc1
The “hERG current change (%, negative = inhibition) at 1uM” value of the first is higher: 17.4% for the first, 9% for the second.

Compared with `COc1ccc2c(c1)CCCC21NC(=O)N(CC(=O)c2cc(F)ccc2F)C1=O` (centres unmarked), `CCN(CC(=O)Nc1ccccc1OC)C(=O)CN1C(=O)NC(C)(c2ccccc2)C1=O` (centres unmarked) is higher in “hERG current change (%, negative = inhibition) at 1uM” value: 4.68% for the first, 5.56% for the second.

Compared with `O=C1[C@H]2[C@H]3[C@H](O)[C@H](O)C/C(=N\OC[C@@H](O)COCc4ccco4)[C@@H]3CC[C@H]2C(=O)N1c1ccc(F)cc1F`, `Cc1ccc(N2CC(C(=O)OCc3ccccc3F)CC2=O)cc1` (centres unmarked) is lower in “hERG current change (%, negative = inhibition) at 1uM” value: 19.3% for the first, 0.883% for the second.

Going from `Cc1cccc(N2CCN(C(c3ccc(N(C)C)cc3)c3nnnn3C(C)(C)C)CC2)c1C` (centres unmarked) to `Cn1c(CNC(=O)c2ccccc2)nnc1SCC(=O)N1CCN(c2ccccc2)CC1`, the “hERG current change (%, negative = inhibition) at 1uM” value rises from -2.35% to 3.9%.

First: C=CCNC(=O)NC(=O)COC(=O)c1nc2nccc(C)n2n1
Second: O=C(CCC(=O)OCC(=O)c1ccccc1)Nc1cccc2cccnc12
The “hERG current change (%, negative = inhibition) at 1uM” value of the first is higher: 12% for the first, 3.6% for the second.

Going from `COc1cccc(NC(=O)COC(=O)/C=C/c2ccc(Cl)cc2Cl)c1` to `O=C(N/N=C/c1cccnc1)c1cccc(NC(=O)c2cccc(Br)c2)c1`, the “hERG current change (%, negative = inhibition) at 1uM” value rises from 9.11% to 16.2%.

First: Cc1ccc(C(=O)N2CCCC(C(F)(F)F)C2)cc1S(=O)(=O)N1CCOCC1 (centres unmarked)
Second: Cc1[nH]c(C)c(S(=O)(=O)N2CCN(c3ccccc3F)CC2)c1C(=O)N1CCCCC1
The “hERG current change (%, negative = inhibition) at 1uM” value of the first is lower: 5.54% for the first, 9.66% for the second.

Going from `COc1ccc(C(=O)NCc2nnc(SCC(=O)NCc3ccc(F)cc3)o2)cc1` to `COc1cc(OC)cc(C(=O)Nc2nnc(SCC(=O)NCc3ccco3)s2)c1`, the “hERG current change (%, negative = inhibition) at 1uM” value rises from 8.88% to 9%.

First: CCc1nc(N)c(C#N)c(-c2ccco2)c1C
Second: CCCCc1[nH]nc2c1C1(C(=O)N(CC)c3ccccc31)C(C#N)=C(N)O2 (centres unmarked)
The “hERG current change (%, negative = inhibition) at 1uM” value of the first is higher: 12.1% for the first, 1.84% for the second.

Compared with `COc1cc2c3c(c1)C(C)CC(C)(C)N3C(=O)C2=O` (centres unmarked), `CCN1C(=O)C(C(=O)Nc2ccc(OC)cc2)C2CC1(C)Oc1ccccc12` (centres unmarked) is higher in “hERG current change (%, negative = inhibition) at 1uM” value: -7.9% for the first, 4.5% for the second.

First: COc1cc([C@H]2c3[nH]c4ccccc4c3C[C@H]3C(=O)N4[C@@H](c5cc(OC)c(OC)c(OC)c5)c5[nH]c6ccccc6c5C[C@H]4C(=O)N23)cc(OC)c1OC
Second: COc1ccc(-n2nc(C(=O)NCC(=O)N3CCN(Cc4ccc5c(c4)OCO5)CC3)c3ccccc3c2=O)cc1OC
The “hERG current change (%, negative = inhibition) at 1uM” value of the first is lower: 2.52% for the first, 5.71% for the second.

First: CC(=O)N1CN(S(=O)(=O)c2ccc(C)cc2)CC1C (centres unmarked)
Second: O=C(NCc1cccnc1)c1ccc(S(=O)(=O)N2CCCCC2)cc1
The “hERG current change (%, negative = inhibition) at 1uM” value of the first is higher: 11% for the first, 9.9% for the second.

Going from `COc1ccc(N2C(=O)CC(NC3CCCCNC3=O)C2=O)cc1` (centres unmarked) to `COc1ccc(OCCCC(=O)Nc2nnc(C3CCCO3)s2)cc1` (centres unmarked), the “hERG current change (%, negative = inhibition) at 1uM” value rises from 9.58% to 9.7%.

Going from `CCN(Cc1cc2cc(OC)ccc2[nH]c1=O)C(=O)Cc1ccc(OC)cc1` to `COc1ccc2[nH]c(=O)c(CN(Cc3cccs3)S(=O)(=O)c3cccc4nsnc34)cc2c1`, the “hERG current change (%, negative = inhibition) at 1uM” value falls from 4.5% to 2.55%.

Going from `Cc1nc2ccc(S(=O)(=O)NC(C(=O)N3CCC(C)CC3)C(C)C)cc2s1` (centres unmarked) to `COc1ccc(S(=O)(=O)NC(CC(=O)N2CCC3(CC2)OCCO3)C(C)C)cc1` (centres unmarked), the “hERG current change (%, negative = inhibition) at 1uM” value rises from 5.19% to 12.7%.

Compared with `O=C(c1ccc(Cl)c(Cl)c1)N1CCC(=O)N(C(COCc2ccc(Cl)cc2)Cc2ccccc2)CC1` (centres unmarked), `O=C(c1ccco1)N1CCN(C(=O)c2ccc(CS(=O)c3ccc(Cl)cc3)o2)CC1` (centres unmarked) is lower in “hERG current change (%, negative = inhibition) at 1uM” value: 0.912% for the first, 0.733% for the second.

Compared with `CC(C)N(C(=O)CC1ON(C)C(=O)N1c1ccc(Cl)cc1)C(C)C` (centres unmarked), `CC(C)c1ccc(C(=O)NCCCN2CCN(CCCNC(=O)c3ccc(C(C)C)cc3)CC2)cc1` is lower in “hERG current change (%, negative = inhibition) at 1uM” value: 3.83% for the first, -86.4% for the second.

Compared with `Cl.O=C(N1CCN(Cc2ccccc2)CC1)C12CC3CC(CC(C3)C1)C2`, `CC1CC(C)(C)NC(=S)N1CCC(=O)N1CCN(Cc2ccccc2)CC1` (centres unmarked) is lower in “hERG current change (%, negative = inhibition) at 1uM” value: 18.4% for the first, 7.38% for the second.

Going from `CCOc1ccc(-c2cc(C)[n+](CCc3ccc(OC)c(OC)c3)c(-c3ccc(OCC)cc3)c2)cc1.[O-][Cl+3]([O-])([O-])[O-]` to `COc1ccc(N(CC(=O)Nc2ccccc2C(=O)NCCc2ccccc2)S(C)(=O)=O)cc1OC`, the “hERG current change (%, negative = inhibition) at 1uM” value rises from -70.1% to -8.91%.

First: Cc1nonc1C(=O)N/N=C/c1ccncc1
Second: COc1ccc(/C=C(/NC(=O)c2ccccc2)C(=O)N/N=C/c2ccncc2)c(OC)c1
The “hERG current change (%, negative = inhibition) at 1uM” value of the first is lower: 0.161% for the first, 15.5% for the second.

Compared with `CCN(CC)CC.NN1C(=O)/C(=C2/Sc3ccccc3N2CCCS(=O)(=O)O)SC1=S`, `CCCCCCC(=O)c1c([O-])n(-c2ccccc2OC)c(=O)[nH]c1=O.C[NH+](C)C` is higher in “hERG current change (%, negative = inhibition) at 1uM” value: 2.9% for the first, 14.1% for the second.

First: CCOC(=O)CN1C(=O)N[C@@H](c2cccs2)C(C(=O)OC)=C1C
Second: COC(=O)c1ccccc1NC(=O)C1CC(=O)N(c2ccc(C)c(C)c2)C1 (centres unmarked)
The “hERG current change (%, negative = inhibition) at 1uM” value of the first is lower: 1.4% for the first, 4.82% for the second.

Compared with `O=C(CSc1nnc(CNc2cccc(C(F)(F)F)c2)n1Cc1ccco1)NCc1ccco1`, `COc1cccc(-n2c(SCC(=O)Nc3nccs3)nnc2-c2ccoc2C)c1` is lower in “hERG current change (%, negative = inhibition) at 1uM” value: 6.48% for the first, -84.6% for the second.

Going from `CC1CCCCN1S(=O)(=O)c1coc(C(N)=O)c1` (centres unmarked) to `Cc1ccc(C)c(S(=O)(=O)N2CCCOC2CNC(=O)C(=O)NCCc2ccccc2)c1` (centres unmarked), the “hERG current change (%, negative = inhibition) at 1uM” value falls from 9.23% to 8.93%.

Going from `CCc1ccc(N/C(SC)=C(/C#N)C(N)=O)cc1` to `CCc1ccc(N(C(=O)c2snc(C(N)=O)c2N)C(C(=O)NCC2CCCO2)c2cccs2)cc1` (centres unmarked), the “hERG current change (%, negative = inhibition) at 1uM” value rises from -5.62% to 7.84%.

Compared with `COc1ccc(C(=O)/C=C/Nc2cccc(C)n2)cc1OC`, `COc1ccc(NC(=O)c2ccc(-n3cccn3)nc2)c(OC)c1` is lower in “hERG current change (%, negative = inhibition) at 1uM” value: 20.2% for the first, 17.4% for the second.

Compared with `COc1ccc(/C=N\Nc2ccc([N+](=O)[O-])cc2)c(C(=O)O)c1OC`, `COc1ccc(N(C)S(=O)(=O)c2cccc(C(=O)Nc3nc(C)cs3)c2)cc1` is lower in “hERG current change (%, negative = inhibition) at 1uM” value: 10.5% for the first, -0.264% for the second.

First: COc1ccc(C(CNC(=O)Cc2ccc3ccccc3c2)N(C)C)cc1 (centres unmarked)
Second: Cc1c(Cl)cccc1NC(=S)NCCc1ccc(S(N)(=O)=O)cc1
The “hERG current change (%, negative = inhibition) at 1uM” value of the first is lower: 9.52% for the first, 12.3% for the second.

Compared with `O=C(NCc1cccnc1)c1ccc2c(c1)OCO2`, `Cc1ccc(C)c(NC(NC(=O)c2cccnc2)C(Cl)(Cl)Cl)c1` (centres unmarked) is higher in “hERG current change (%, negative = inhibition) at 1uM” value: 7.74% for the first, 11.6% for the second.

Going from `N#C/C(=C\c1c[nH]c2ccccc12)C(=O)NCC1CCCO1` (centres unmarked) to `CCOC(=O)c1c(NC(=O)CSc2nnc(-c3c[nH]c4ccccc34)n2CC)sc2c1CCCC2`, the “hERG current change (%, negative = inhibition) at 1uM” value rises from 15.5% to 23.7%.

Compared with `COC1CCCN(C(=O)c2ccc(OC3CCN(CCc4ccccc4)CC3)cc2)C1` (centres unmarked), `CN1CCN(Cc2nc3c(c(=O)[nH]c(=O)n3C)n2CCc2ccccc2)CC1` is lower in “hERG current change (%, negative = inhibition) at 1uM” value: 2.5% for the first, -2.06% for the second.

Compared with `COc1ccc(OCCSc2ncc(CO)n2C)cc1`, `CCc1ccc(OCC(O)CN2CCN(CCO)CC2)cc1.Cl` (centres unmarked) is lower in “hERG current change (%, negative = inhibition) at 1uM” value: 13.8% for the first, 11.7% for the second.

Going from `O=c1[nH]c(NC2CCCCC2)c([N+](=O)[O-])c(=O)[nH]1` to `Cc1sc(NC(=S)NC(=O)C2CCCCC2)c(C(N)=O)c1C`, the “hERG current change (%, negative = inhibition) at 1uM” value rises from 15.9% to 17.2%.

Compared with `Cc1cc(C)n(CCC(=O)N2CCCC(Nc3ccc(F)cc3)C2)n1` (centres unmarked), `Cc1ccc(OCC(=O)N2N=C(C(F)(F)F)CC2(O)C(C)(C)C)cc1C` (centres unmarked) is lower in “hERG current change (%, negative = inhibition) at 1uM” value: 14% for the first, -4.8% for the second.

Compared with `Cc1c(N=Cc2c(O)n(Cc3ccco3)c(=O)[nH]c2=O)c(=O)n(-c2ccccc2)n1C`, `Cc1ccc2cc(CN(CCCO)S(=O)(=O)c3cccc4nsnc34)c(=O)[nH]c2c1C` is lower in “hERG current change (%, negative = inhibition) at 1uM” value: 7.36% for the first, -4.09% for the second.

First: CC1CN(c2ccc([N+](=O)[O-])cn2)CC(C)O1 (centres unmarked)
Second: COC(=O)N(c1ccc(OC)cc1)P1(=S)OCCC(C)O1 (centres unmarked)
The “hERG current change (%, negative = inhibition) at 1uM” value of the first is lower: 0.324% for the first, 3.42% for the second.

First: Cc1noc(/C=C/N(C)C)c1S(=O)(=O)N(C)Cc1ccc(F)cc1
Second: Cc1onc(COc2ccccc2O)c1Br
The “hERG current change (%, negative = inhibition) at 1uM” value of the first is lower: 5.4% for the first, 20% for the second.

Compared with `COc1ccccc1NC(NC(=O)c1ccccn1)C(Cl)(Cl)Cl` (centres unmarked), `O=C1C(=O)N(CCN2CCOCC2)C(c2ccc(Cl)c(Cl)c2)/C1=C(/O)c1ccc2c(c1)OCO2` (centres unmarked) is higher in “hERG current change (%, negative = inhibition) at 1uM” value: 1.41% for the first, 11.3% for the second.

With `Nc1nc(=S)c2ncn(C3OC(CO)C(O)C3O)c2[nH]1` (centres unmarked) the “hERG current change (%, negative = inhibition) at 1uM” value was 16.3%.

Source: publication PMC4336329 (PLoS ONE, 2015)
